# Data as given in PubChem BioAssay AID1347417 (National Center for Advancing Translational Sciences (NCATS), 2020).
# Out of some 120,000 compounds screened, about 5,300 (4.4%) were called active. Inconclusive results, whose numbers are uncertain, are shown with a selection of clear calls. The call rests on the fitted dose curve; in most records, active means well fitted inhibition curve with a large enough effect; inconclusive means small, poorly fitted or top-dose-only effect; inactive means no such curve, though single readings can be large or run the other way. Potencies beside an inconclusive call are fits to weak or partial responses and may not hold up.
# Test: qHTS Primary assay for Inhibitors of Plasmodium falciparum Dd2 growth in vitro; further: nearly all actives have a fitted effect of over 65% in size;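 on activity, negative = inhibition: plate controls were DMSO vehicle for no effect and reference drug for full effect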
# Details: P. falciparum Dd2 growth, SYBR Green, 72 h; activity, negative = inhibition: at 28.9 µM (top of the series) unless noted; series mostly up to 28.9 µM
# Summary of the method: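 Readout: SYBR Green fluorescence, 485 nm excitation, 535 nm emission, after ~16 h lysis at 37C. Before that, Dd2-infected red cells (2.5% hematocrit) grew 72 h with compound, 29 uM top final concentration.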
# Potency means the concentration at half of the fitted maximal effect; tags describe the fitted curve by direction and shape.
Compound,Potency,"activity, negative = inhibition",outcome
c1ccc(-c2noc(CC3CCOC4(CCN(Cc5cccnc5)CC4)C3)n2)cc1 (stereo unspecified),"inconclusive: 3.98 µM [inhibitor, partial curve, poor fit]",,
Cc1cc(NC(=O)c2ccc3c(c2)N(Cc2cccc(Cl)c2)C(=O)c2ccccc2S3(=O)=O)ccc1Br,active: 8.91 µM,,
O=C1NCCCCCCN[C@H]2CCCC[C@@H]12,"inconclusive: 17.8 µM [inhibitor, single point]",,
CCN(c1ccccc1)S(=O)(=O)c1nnc(NC(=O)c2ccccc2OC)s1,"inconclusive: 20 µM [inhibitor, partial curve, poor fit]",,
Cc1cc(CNC(=O)[C@@H]2CCC[C@@H](N(C)C)CN(C)C(=O)C2)no1,,inactive: -11.3% [at 44.1 µM],
CCc1ccccc1NC(=O)CCCSc1nc(-c2ccco2)cc(C(F)(F)F)n1,"inconclusive: 11.2 µM [inhibitor, single point]",,
COc1ccccc1-c1cnc(Nc2ccncc2)c2c1CCO2,"inconclusive: 10 µM [inhibitor, partial curve, poor fit]",,
CCOc1ccc(CN2C(=O)c3ccccc3Sc3ccc(C(=O)NCc4ccco4)cc32)cc1,active: 5.01 µM,,
O=C(N1CCCN(c2cc(-c3ccc(Cl)cc3)[nH]n2)CC1)C1(c2ccccc2)CC1,"inconclusive: 1.41 µM [inhibitor, full curve, poor fit]",,
CCN(CC)c1ccc(CNCCCSc2nnnn2C)cc1,"inconclusive: 7.08 µM [inhibitor, partial curve, poor fit]",,
COc1ccc(-c2noc(NCCN(C)C3CCCCC3)n2)cc1,"inconclusive: 15.8 µM [inhibitor, single point]",,
COCCOC1CCOC2(CCN(S(=O)(=O)c3c(C)noc3C)CC2)C1 (stereo unspecified),"inconclusive: 3.98 µM [inhibitor, full curve]",,
COc1ccc(C(=O)N2CCCOCCNC(=O)[C@@H]3CCCC[C@@H]32)cc1F,,inactive: -22.5%,
COc1ccc(CNC(=O)C2CCN(c3nnc(-n4c(C)ccc4C)s3)CC2)c(OC)c1,"inconclusive: 12.6 µM [inhibitor, single point]",,
CCCCC(=O)Nc1c(C(=O)N2CCN(c3ccccc3F)CC2)oc2ccccc12,active: 11.2 µM,,
CCCOC(=O)c1cccc(NC(=O)c2c(-c3ccccc3Cl)noc2C)c1,"inconclusive: 20 µM [inhibitor, single point]",,
COc1cc(CN2CCC(C)(c3noc(C4CCOCC4)n3)CC2)cc(OC)c1,,inactive: -22.2%,
Cc1ccc(-c2cc3c(=O)n(CCNC(=O)c4cccnc4)ccn3n2)c(C)c1,"inconclusive: 0.891 µM [inhibitor, partial curve]",,
Cc1cnc(C(=O)N2CCCn3nc(CCC(=O)NC(C)C)cc3C2)cn1,,inactive: 1.22%,
COc1ccc(NC(=O)CSc2nc(-c3cc(OC)c(OC)c(OC)c3)[nH]c2-c2ccc(F)cc2)cc1,"inconclusive: 1.12 µM [inhibitor, single point]",,
O=C(CSc1nc(-c2ccccc2)cn1-c1ccccc1F)Nc1ccc(F)cc1,"inconclusive: 8.91 µM [inhibitor, single point]",,
CCOC(=O)c1c(C)oc2nc(C)nc(NCCc3ccc(OCC)c(OCC)c3)c12,"inconclusive: 10 µM [inhibitor, single point]",,

Compound,Potency,"activity, negative = inhibition",outcome
CNC(=O)[C@@H](c1ccc(Cl)cc1)N1CCC[C@H]1C(=O)NCCOC,,inactive: 8.72% [at 44.1 µM],
COc1ccc(S(=O)(=O)c2c(Nc3cccc(C)c3C)sc(C(=O)c3ccccc3)c2N)cc1,active: 10 µM,,
Cn1cccc1CN1CCCC2(CC(Cc3ccccc3)=NO2)C1 (stereo unspecified),"inconclusive: 3.16 µM [inhibitor, partial curve, poor fit]",,
CC1=NS(=O)(=O)N(Cc2ccccc2)C=C1C(=O)OCc1nc(-c2ccccc2Cl)no1,"inconclusive: 17.8 µM [inhibitor, single point]",,
Cc1ccc(C(=O)N2CCC3(CC2)CC(C(C)C)=NO3)cc1,,inactive: -23.7% [at 44.1 µM],
Cc1ccc(-n2ncc(C(=O)NCCN3CCc4ccccc4C3)c2C2CCN(C(=O)OC(C)(C)C)CC2)cc1C,"inconclusive: 3.16 µM [inhibitor, partial curve]",,
COc1ccc(NC(=O)CN2CCN(CC(=O)Nc3ccccc3F)CC2)c(OC)c1,,inactive: -0.988%,
O=C(c1ccncc1)N1CCC2(CC1)N=C(c1ccc(Cl)cc1)NO2,"inconclusive: 3.98 µM [inhibitor, single point]",,
COCCN1C(=O)[C@H]2CN(Cc3ccc(C)s3)C[C@H]2C1=O,,inactive: -17.8%,
COc1ccc(-c2ccccc2CN)cc1,active: 7.94 µM,,
Cn1ncc2c(-c3ccc([S+](C)(=O)[O-])cc3)cc(C(=O)N3CCN(c4ncccn4)CC3)nc21,,inactive: 5.81%,
CC(=O)N1Cc2ccccc2CC2(CCN(Cc3ccccn3)CC2)C1,"inconclusive: 0.631 µM [inhibitor, full curve, poor fit]",,
Cc1cnc(C2CCOCC2)n1C1CCN(C(=O)NCCc2ccccc2)CC1,"inconclusive: 7.94 µM [inhibitor, partial curve]",,
CCOc1ccccc1C(=O)N1CCC(CC(=O)NCc2ccccc2)C1 (stereo unspecified),,inactive: -9.62%,
CCc1nc2cc(N3CCCC(C(=O)NC(C)C)C3)cnc2nc1CC (stereo unspecified),,,inactive
COc1ccccc1OCCNC(=O)c1ccc2c(c1)N(C)C1CCCCN1C2=O (stereo unspecified),"inconclusive: 2 µM [inhibitor, full curve]",,
Cc1noc2c(Nc3ccncc3)cc(-c3ccc(F)cc3)nc12,"inconclusive: 3.16 µM [inhibitor, full curve, poor fit]",,
CCOc1ccc(NC(=O)C(CC)n2nc(C)c3c(C)n(-c4ccccc4)nc3c2=O)cc1 (stereo unspecified),"inconclusive: 17.8 µM [inhibitor, single point]",,
CCOc1ccccc1NC(=O)N1CCC[C@H]1C(=O)N1CCCCCCNC(=O)CC1,,inactive: -3.77%,
CCCCc1ccc(NC(=O)CSc2nc3ccccc3nc2N2CCCCC2)cc1,"inconclusive: 17.8 µM [inhibitor, single point]",,
CCNC(=O)O[C@@H]1CO[C@H]2[C@@H]1OC[C@@H]2NC(=S)Nc1cccc2ccccc12,"inconclusive: 31.6 µM [inhibitor, single point]",,
COc1ccccc1CC(=O)N1CCC2(CC1)N=C(c1ccc(C)cc1)NO2,"inconclusive: 3.55 µM [inhibitor, partial curve]",,

Compound,Potency,"activity, negative = inhibition",outcome
COc1ccccc1-c1nnc([C@H]2CCN(Cc3ccccn3)C2)o1,"inconclusive: 10 µM [inhibitor, partial curve, poor fit]",,
O=C(COc1ccc(F)cc1)N1CCCCC1c1nc(CCOCC2CCCC2)no1 (stereo unspecified),,inactive: -11.5%,
C[S+](=O)([O-])N1CC2(CCCN(Cc3ccc(Cl)cc3)C2)Cc2ccccc21 (stereo unspecified),"inconclusive: 10 µM [inhibitor, partial curve, poor fit]",,
CCn1c2ccccc2c2cc(CN3CCN(Cc4cccc(Cl)c4)CC3)ccc21,"inconclusive: 17.8 µM [inhibitor, single point]",,
O=C(OCc1ccccc1)N1CCOCC12CCN(Cc1ccccc1F)CC2,"inconclusive: 3.98 µM [inhibitor, full curve]",,
Cc1cccc(S(=O)(=O)N2CCC3(C2)C(=O)N(C)c2ccccc23)c1 (stereo unspecified),"inconclusive: 11.2 µM [inhibitor, single point]",,
CN1CC2(CCN(c3nc(-c4ccccc4)no3)CC2)CC(c2ccccc2)C1=O (stereo unspecified),"inconclusive: 10 µM [inhibitor, single point]",,
CCOc1ccccc1CNC(=O)c1ccc(-n2c(C)cc3c2CCC(C)C3)cc1 (stereo unspecified),active: 12.6 µM,,
COc1cc(OC)c(NC(=O)Nc2ccc3c(c2)N(C)C(=O)c2ccccc2S3)cc1Cl,"inconclusive: 14.1 µM [inhibitor, partial curve, poor fit]",,
Cc1ccc(-c2onc(C)c2C)cc1S(=O)(=O)N1CCN(c2ccccc2F)CC1,,inactive: 14.2%,
COc1ccc(CN(C(=O)c2ccco2)c2ccc(CC(=O)NCc3ccccc3)cc2)cc1,"inconclusive: 5.62 µM [inhibitor, partial curve, poor fit]",,
Cc1cn2nc(C(=O)N3CCC(NC(=O)c4ccoc4)CC3)cc2c(=O)[nH]1,,inactive: -3.68%,
OCC1(CN2CCCC2)CCN(Cc2ccc(OC(F)(F)F)cc2)CC1,"inconclusive: 11.2 µM [inhibitor, single point]",,
CCOc1ccc(C(=O)Nc2ccc3nc(Nc4cccc(C(F)(F)F)c4)cc(C)c3c2)cc1OCC,active: 3.16 µM,,
O=c1cc(-c2ccncc2)oc2c(-c3cccc(O)c3)nccc12,"inconclusive: 14.1 µM [inhibitor, single point]",,
Cc1ccsc1CN(C)Cc1c(C)n(C)n(-c2ccccc2)c1=O,,inactive: 3.81%,
Cc1ccccc1N1CCN(C(=O)c2cc3c(s2)CCN(C(=O)c2ccccc2)C3)CC1,"inconclusive: 2.82 µM [inhibitor, full curve, poor fit]",,
COc1ccc(-c2[nH]nc3ncc(-c4ccccc4O)nc23)cc1F,"inconclusive: 2.82 µM [inhibitor, partial curve, poor fit]",,
O=C1NC2(CCN(C(=O)c3ccc4c(c3)OCO4)C2)OCc2ccccc21 (stereo unspecified),,inactive: -1.34%,
CC(C)CCN1CCC2(C1)C(=NC1CCCC1)NC(=O)N2c1cccnc1 (stereo unspecified),"inconclusive: 17.8 µM [inhibitor, single point]",,
COCCNCc1ccc(-c2cccc(Cl)c2)o1,"inconclusive: 12.6 µM [inhibitor, partial curve]",,
CSc1cccc(NC(=O)N[C@H]2C[C@@H](C(=O)N[C@H](Cc3c[nH]c4ccccc34)C(N)=O)N(C(=O)C=C(C)C)C2)c1,,,inactive
